# About 540 (0.36%) of roughly 150,000 compounds showed an effect of 50% or more. The list shows a part of the results.
# System: Plasmodium falciparum
# Test: Primary screen in NF54 nanoGlo assay, in single point, at 2uM, 72h; a lower Z score goes with more inhibition
# Format: functional, Erythrocyte
# Conditions: timepoint 72 hour
SMILES,% Inhibition [%],Z score
CN(C[C@H]1CCCCO1)C(=O)Cn1ncc(N(C)C)cc1=O,-11,2.02
Cn1cc(NC(=O)CCOC2CCOCC2)cn1,-2,0.2
CS(=O)(=O)N1CCC[C@H]1C1CCCCC1,21,-2.41
O=C1NCCN1CCN1CCC(c2nc3cc(Cl)ccc3s2)CC1,-9,0.75
Cc1cccc(CN2C(=O)CC3(CCC3)C2=O)n1,-5,0.87
CCN(C(=O)[C@@H]1CC[C@H](C(=O)O)C1)c1ccc2[nH]ccc2c1,1,-0.25
COc1cccc(-n2nc(C)c(CCC(=O)Nc3cccc(C(=O)NC4CC4)c3)c2C)c1,0,-0.04
Cc1n[nH]c2c1CN(C(=O)c1csc(C(C)C)c1)CC2,-12,1.1
CCOc1ccccc1OCC#CCNC,-6,1.1
CC(C)Cc1cc(C(=O)N[C@H]2CCNC2=O)nc(=O)[nH]1,-8,0.99
N#Cc1cnc(NCCN2CCCCC2)cn1,-7,0.88
Cc1ccccc1-n1nc(C)c2[nH]c(-c3nc(C)c(C)nc3C)nc21,-5,0.61
NCCOc1ncccc1C(F)(F)F,-34,4.04
CN(C)Cc1ccc(C(=O)N2CC[C@@H]3OCc4cccc(c4)Oc4cccc(c4)CCC(=O)N(C)CC(=O)N[C@@H]3C2)o1,8,-1.12
CC(C)(C)CNCc1cnc(N)nc1N,-5,0.58
CCC(C)c1ccc(C(CC)NC(=O)c2cc(C)nc3ncnn23)cc1 (configuration not stated),27,-3.06
CN1CCC(NC(=O)c2ccc(=O)n(C)c2)C1c1ccc(F)c(F)c1 (configuration not stated),-18,1.51
Cc1cc(C(=O)N2CCN(c3nccc4occc34)CC2)on1,10,-1.25
CC1CCN(c2nc3c(c(Oc4ccccc4)n2)CN(C(=O)c2ccc(Cl)c(Cl)c2)CC3)CC1,-14,2.61
O=C(NCc1ccccn1)c1n[nH]c2c1CCCCC2,-5,0.66
Cc1nc(-c2ccccc2NC(=O)C2CCN(S(C)(=O)=O)CC2)cs1,3,-0.38
CCc1nnc(CNC(=O)c2cccnc2O)s1,-9,0.92

SMILES,% Inhibition [%],Z score
CCc1noc(Cn2cnc3c4ccccc4n(CC(=O)Nc4c(C)cccc4C)c3c2=O)n1,6,-0.8
CCCCCOCC(=O)NCc1cc2n(n1)CCC2,-14,2.52
Cn1cccc(NC(=O)NC2CCCCC2OC2CCCC2)c1=O (configuration not stated),-10,0.91
O=C(Nc1ccc2[nH]c(C3CC3)nc2c1)c1cccnc1,-6,0.69
CN(Cc1noc(-c2ccoc2)n1)c1ccccc1F,0,-0.04
CC(C)(C)NC(=O)[C@@H]1CCCCN1CCc1ccncc1,-8,0.77
O=C(NC1C2CCc3ccccc3C21)c1ccc(S(=O)(=O)Nc2ccncc2)cc1 (configuration not stated),-2,0.18
CS(=O)(=O)Cc1nc(Cc2ccccc2)c(-c2ccccc2)s1,7,-1.19
COc1ccccc1OCC[C@H]1CCN(C(=O)COc2ccc(C)cc2)C1,-12,2.29
COc1ccc(-c2ccc3c(c2)C(=O)N2CCN(C(=O)c4cccc(F)c4)C[C@@H]2C(=O)N3)cc1,29,-3.24
Nc1ncc(C(=O)N2CCC[C@H](c3cccc(C(=O)O)c3)C2)c(-c2ccccc2)n1,6,-0.58
Cc1nccnc1N1CCC(F)(F)[C@@H](C)C1,-4,0.49
CCCn1nccc1NC(=O)c1ccoc1,2,-0.34
O=C(NCCc1noc2ccccc12)N[C@H]1CC[C@@H](C(=O)N2CCCCC2)C1,-3,0.46
Cc1cccc(CCCN[C@H]2CCC(=O)N(CC3CC3)CC2)c1,-5,0.77
Cc1nc2c(C(=O)N3CCN(c4cnccn4)CC3)ccnc2[nH]1,6,-1.24
Cc1ccc([C@@H](O)Cn2cc(C(=O)Nc3ccc(C)c(C)c3)nn2)cc1,-27,2.68
O=C(N[C@@H]1CC[C@H]2CCOc3ccccc3C(=O)N3CCN(CC4CCCCC4)C[C@H]3C(=O)NC[C@H]1O2)C1CCOCC1,2,-0.25
CC(C)(C)c1ccc(Cn2cnc3c2c(=O)n(CC2CC2)c(=O)n3-c2ccccc2)cc1,-9,1.29
Cc1ccsc1CN(C)Cc1cnc(N2CCOCC2)nc1,-8,0.92
O=C(Nc1cccc(/C=C/c2ccncc2)c1)c1ccco1,-8,0.99
Cc1ncnc(NCCc2n[nH]c(=O)n2C)c1C,-4,0.7

SMILES,% Inhibition [%],Z score
CCn1cc(S(=O)(=O)NCc2nc(COC)no2)c(C)n1,11,-1
CC[C@H]1C=CCN1C(=O)c1cc2cc(F)ccc2n1C,-4,0.71
CC(C)N1CCN(C(=O)CCc2nc3ccccc3[nH]2)CC1,-7,0.85
CCN(CC)S(=O)(=O)N[C@@H](C)c1ccc(S(C)(=O)=O)cc1,0,-0.04
CNC(=O)c1cc(N2CCCc3cc(OC)ccc3C2)ccn1,-4,0.84
O=C(CN1CCOC1=O)N1CC[C@H](Oc2ccccn2)C1,-7,1.35
COC1CCN(c2nnc([C@@H]3CC[C@H](C)O3)n2CC(C)C)CC1,5,-1.01
Cc1cc(C(=O)N2CCC(Nc3cccn4ncnc34)CC2)nn1C,-2,0.26
Cc1cccc(CNC(=O)c2n[nH]c3c2CN(C(=O)c2ccco2)CC3)c1,-13,1.65
C#CCCCC(=O)NCc1ccccc1,-6,0.67
O=C(NCCc1ccc(F)cc1)C(=O)Nc1ccc2c(c1)OCCO2,-11,1.67
Cc1ccc2cc(C(=O)N3CC(CO)OCC3C)ccc2n1 (configuration not stated),-4,0.54
CCCc1noc(CCCC(=O)N2CCc3cccc(OC)c3CC2)n1,-11,1.26
C[C@@H](C(=O)NC1(c2ccccc2Cl)CCC1)n1cncn1,3,-0.4
CCOc1ccccc1NC(=O)CN1C(c2ccccc2)=C[C@@H](c2ccc(C)cc2)n2nnnc21,-4,0.36
CCN(CC)C(=O)Cc1cccc(OC)c1,-9,0.83
Cc1cc(C)n([C@@H](C)Cn2cc(Oc3ccccc3)c(=O)c(C(=O)O)c2)n1,1,-0.07
O=C(c1cccc(N2C(=O)CCS2(=O)=O)c1)N1CCCC1,-7,0.84
Cc1nccn1C1(C(=O)O)CCN(C(=O)c2ccc3c(c2)CCC3)CC1,-7,1.47
Cc1ccc(S(=O)(=O)c2c(C(=O)N3CCCC3)cnc3ccc(F)cc23)cc1,-23,2.23
O=S(=O)(CC1CCCCC1)NCc1nc(C(F)(F)F)cs1,-13,1.69
CCc1cc(CNS(=O)(=O)c2ccc(-c3onc(C)c3C)o2)on1,7,-0.9

SMILES,% Inhibition [%],Z score
O=C(NCc1c(F)cccc1F)c1cnc(-c2cccnc2)nc1,-9,1.6
CCn1cc2c(n1)c(=O)n(Cc1ccc(C)cc1)c(=O)n2CC(=O)Nc1ccc(F)cc1,-4,0.52
COC(=O)c1cc(CN)cc(NC(=O)C2CCCCC2)c1,-6,1.05
Cc1c(C(=O)CC(=O)c2cnn(C)c2C)cnn1C,2,-0.26
Cc1cc(C(=O)N[C@H]2C[C@@H](N3CCCC3)C2)ns1,3,-0.55
O=C(Nc1nc2c(s1)CCC2)C1CC1C(=O)Nc1nc2c(s1)CCC2 (configuration not stated),-4,0.36
CC(C)c1ccc(C(O)=Cc2nc3c(=O)[nH]c(=O)n(C)c3nc2O)cc1,-1,0.05
Cc1n[nH]c([C@@H]2CN(Cc3noc(CC(C)C)n3)CCO2)n1,-12,1.2
COc1cc(NC(C)(C)CN2CCOCC2)ncn1,-11,0.99
CC(C)N(CC(N)=O)CC(=O)NCc1ccccc1,2,-0.22
CCc1nn(C)cc1C(=O)N[C@H]1CCS(=O)(=O)[C@H]1C,-16,3.02
Nc1n[nH]c(C(=O)NC2CCN(S(=O)(=O)c3ccccc3)CC2)n1,-1,0.25
CCN1CCC(NC(=O)[C@@H]2CCCCN2C(=O)OC(C)(C)C)CC1,-4,0.73
Cc1nc(CN2CCN(C(=O)c3ccc(=O)[nH]c3)CC2)sc1C,-2,0.34
O=C(NCCCN1CCOCC1)c1cn2c(n1)CC[C@H](c1cc(C(F)(F)F)cc(C(F)(F)F)c1)C2,-5,0.97
CS(=O)(=O)C1CCC(NC(=O)NC2CC3CCC2O3)CC1 (configuration not stated),0,-0.01
O=C(c1ccc(F)cc1Cl)N1C2C=CCC1CC2 (configuration not stated),-11,1.95
O=C(CCC(=O)c1ccc(Cl)cc1)NC1CCN(c2nc3cccnc3s2)CC1,-13,1.86
FC(F)c1ccc(CN2CCc3nccnc3C2)cc1,-9,1.36
Cc1cc(C)c(O)c(-c2cc(C(=O)Nc3sc4c(c3C#N)CCCC4)[nH]n2)c1,1,-0.17

# From ChEMBL document CHEMBL4888484, “Replenishing the malaria drug discovery pipeline: Screening and hit evaluation of the MMV Hit Generation Library 1 (HGL1) against asexual blood stage Plasmodium falciparum ,using a nano luciferase reporter read-out” (2022)
